67 sequences from the supplement of paper PMC10126150 can be followed below.

This data set concerns ATP. In words: switch fluorescence ratio, 500 uM ATP over buffer (Cy3 cluster intensity, sum of 5 cycles each) (fold (ratio)); higher = stronger signal-on switching upon ATP binding; sequences stand for … in TCGTCGGCAGCGTCAGATGTGTATAAGAGACAGTTTTTTTTTTTTTTTTTTTTTTTTT…TC. To be noted: aptamer strand: ATP DNA aptamer (quencher-CACCTGGGGGAGTATTGCGGAGGAAGG + anchor), 100 nM annealed; ATP concentration: 500 uM; one replicate. The gist of the method: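 Imaging in selection buffer was followed by imaging after 15 min with 500 uM ATP at 22 °C, for Cy3-labelled switching-strand clusters annealed to 100 nM quencher-labelled ATP aptamer on a modified Illumina MiSeq flow-cell. Five of these buffer/ATP cycles ran, separated by NaOH stripping and re-annealing. The fluorescence ratio per cluster is summed target-cycle over summed buffer-cycle Cy3 intensity, averaged per switch-domain sequence; clusters outside 100-1000 RFU were removed.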

Sequences with one replicate were seen in a single cluster, so their values are uncertain.
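Note: ATP exposure 15 min at 22 °C before imaging.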

Turning to CACTCCTGAA, the switch fluorescence ratio was found to be 1.03.
For the sequence ATGGAAAAGT, the switch fluorescence ratio was 1.01.
For GCTTGGGTGG, the switch fluorescence ratio was 0.965.
With CCCAAAGGGA the figure was 0.979; with TCCCTAGTGA, 1.14.
Turning to GGTCCATCCT, the switch fluorescence ratio worked out at 0.984.
Take TGTGCCGGGG: the switch fluorescence ratio was 0.962.
With ATTTGTGGTA the figure was 0.997; with TCAATGTCTT, 0.955; with GGATTGCGGG, 0.993.
In the case of CGGGTTGTTT, the switch fluorescence ratio is 1.04.
Regarding ATGGCATTTC, the switch fluorescence ratio was found to be 0.991.
With GGATACAACT the figure was 1.05; with TCAGTTCGCT, 1.04; with TCAACTATGA, 1.02.
With ATTAAGCCGT, the switch fluorescence ratio is 1.1.
Consider ACCTTAGGGG, for which the switch fluorescence ratio is 1.23.
With GTAGGGTCTG the figure was 0.994; with TCAGAGGCCA, 1.02; with GATAGTTACG, 1.02.
CGACGAATCA: the switch fluorescence ratio is 0.935.
Under TACTGGGTTT stands 1.01.
Under CGAGGACTAA stands 1.01; under TTACCTTGGA, 1.01; under ATATCCCTAC, 1.06.
With ATTTATCGGC the figure was 0.975.
As for GTTGTGCAGG, the switch fluorescence ratio turned out to be 1.03.
Take CCTCCAGTCG: the switch fluorescence ratio stood at 1.72.
Under GTTACAGGGT stands 1.06; under GATAATCGTT, 0.997; under GCATATCATC, 0.981.
As for CTCACGGTGC, the switch fluorescence ratio amounted to 2.03.
As to TAGAAAAGGA, the switch fluorescence ratio is 1.01.
As for ACGACAACTC, the switch fluorescence ratio came out at 1.4.
Under CAATGGAATA stands 1.04.
With CGGAGTGTAG the figure was 1.03; with AACATTCATA, 1.02.
Take GGGTAATAGT: the switch fluorescence ratio was 0.989.
Take GAAGTACGTT: the switch fluorescence ratio worked out at 1.18.
Consider CAATAGACGC, for which the switch fluorescence ratio was 1.06.
With GGTATTTAAC the figure was 1.02.
With CGCGCCTCGC, the switch fluorescence ratio amounted to 1.04.
In the case of GCGAGTCAGA, the switch fluorescence ratio was 0.997.
Under CGAAGGCGAT stands 1.13; under TAGAAAGGTA, 1.04.
With TGGAATAAAT the figure was 0.991.
With AATTAGAGTG the figure was 1.
Regarding TAGCGCACCG, the switch fluorescence ratio was 1.04.
Turning to TCACGTAAAG, the switch fluorescence ratio is 1.21.
Under CAGCGTCTCG stands 1.01.
For AGGATTTCCG, the switch fluorescence ratio was found to be 0.977.
As for CGTGAATCCC, the switch fluorescence ratio was found to be 1.
Under ATACAAATAC stands 1.52; under TTTTCCACTA, 1.04; under ACGGATATGC, 1.35.
With TGAAAAGCCT, the switch fluorescence ratio came to 1.1.
With AAGAGAAACT the figure was 1.03.
GGTATTCTTA: the switch fluorescence ratio stood at 0.986.
As for TCGCAACGG, the switch fluorescence ratio amounted to 1.01.
Turning to GAACCCTGTT, the switch fluorescence ratio was 0.991.
Consider TATGACTAGT, for which the switch fluorescence ratio was 0.987.
With CTTCTAGAAT the figure was 1; with ATATCAGCT, 1.02.
As for TAATTGACTG, the switch fluorescence ratio is 0.936.
Under GGTGTGTAGC stands 0.991.
With CCCGGTGGC the figure was 1.15; with TAGCCGAGTT, 1.03.
